Measured values as given in the supplement of paper PMC3334620.
The full ranking holds about 33,000 sequences; the median of “E-score (-0.5 to 0.5)” is about -0.036, and the highest 2% start at about 0.37. This is one part of the list.

Biological target: T1, Yer064c (UniProt P40041)
T1 sequence: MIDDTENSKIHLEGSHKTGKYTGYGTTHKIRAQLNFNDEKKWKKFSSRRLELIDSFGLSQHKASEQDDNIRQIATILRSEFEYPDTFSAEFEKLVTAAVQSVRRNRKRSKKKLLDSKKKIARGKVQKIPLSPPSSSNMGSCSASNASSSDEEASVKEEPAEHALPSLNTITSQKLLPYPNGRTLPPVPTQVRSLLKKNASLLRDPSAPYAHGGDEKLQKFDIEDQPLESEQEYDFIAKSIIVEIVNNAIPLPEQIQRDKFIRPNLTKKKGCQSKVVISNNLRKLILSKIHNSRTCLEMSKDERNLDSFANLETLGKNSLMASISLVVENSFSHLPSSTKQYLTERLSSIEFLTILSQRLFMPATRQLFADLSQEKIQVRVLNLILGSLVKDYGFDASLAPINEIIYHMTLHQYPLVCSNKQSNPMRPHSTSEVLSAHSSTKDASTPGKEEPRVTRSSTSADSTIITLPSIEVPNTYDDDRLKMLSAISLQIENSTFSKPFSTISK
Experiment: PBM E-score (8-mer binding enrichment) (E-score (-0.5 to 0.5)); higher = stronger / more preferred TF binding; most listed sequences are background and not binding sites
Details: protein concentration: 200 nM; construct: GST-full length
Procedure, shortened: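 PURExpress in vitro transcription/translation supplied GST-tagged yeast transcription factors, either full-length or DNA-binding domain. Applied at about 100-200 nM to universal all-10-mer Agilent arrays double-stranded by primer extension, the bound protein was detected with fluorescent anti-GST. E-scores, modified Wilcoxon-Mann-Whitney statistics, were given by the Universal PBM Analysis Suite to ungapped eight-base words pooled with their reverse complements after masliner normalisation.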

Sequence | PBM E-score
AGACGTTC | -0.092
CCAAACCG | -0.0301
GTCAAGAC | 0.19
ACCTAAAG | -0.0663
GACCGCAC | -0.161
CTTATCGC | 0.0289
TGGCACCA | -0.469
ACGGTTCC | -0.0675
ATTGTGGG | 0.108
GCAGTCCA | 0.123
AGCGCGAT | 0.047
CCAATTCG | -0.0585
AAGGTCTG | -0.0928
ATTTCGCA | -0.03
AGTAAGCC | -0.179
CGTAAGTA | 0.046
AGATAAGC | -0.11
CTCACATC | 0.0966
CCCAAAGG | -0.165
AGGGAGAA | -0.0717
CAACCAAA | 0.0356
ACAAGTAG | 0.00472
AACTCTAC | -0.212
CCACTACA | -0.0682
CCTCTTAA | -0.0462

Sequence | PBM E-score
CATTGCTA | -0.125
AAATGCGC | -0.152
GTGCAATA | -0.165
AACCGTTA | 0.0513
GATAATGA | 0.158
GACCCATA | 0.145
AAGAAAGT | 0.0227
AGGTGTCC | -0.0242
CATCGTAA | 0.0458
ACTCTATA | 0.239
ACTCACGC | 0.357
GGTCATCA | 0.228
CGCCGTTC | -0.0382
CCTGAGAC | 0.103
ACGATCGG | -0.0226
CATATATA | 0.187
GAGCTACA | -0.0672
AGGGACCC | -0.274
AGTAAAGC | 0.106
TCCTTTCA | -0.0272
AACAGGAC | 0.0509
AACCGCCG | -0.0111
AGACAATG | -0.128
ACCGTGGC | -0.062
AATCAAAG | 0.224

Sequence | PBM E-score
ATGATGAC | 0.352
CAGGGCTA | -0.2
CTCAGCAA | 0.129
AACACATG | 0.0954
AATTAAAG | -0.0137
AGTCTATA | 0.214
GACGGCGA | 0.138
ACATTCCG | -0.191
AACGAAGT | -0.0275
AAGCGAAA | -0.213
CGCGCGAA | -0.0177
AGAACGCG | -0.101
CCAGGAAA | 0.0481
ACCATCTG | -0.058
CCTTCCTA | -0.284
CCACTGTC | -0.218
AGTTAAAG | 0.0913
GCACACTA | -0.128
TGCTAGCA | -0.178
CGCTTCTA | -0.00649
CCGCCTTC | -0.229
GCGTTTAA | 0.0655
AAGTGCGA | 0.027
CCCGAAGG | -0.102
AACTGGAA | -0.111

Sequence | PBM E-score
CGCCTTCA | -0.29
CCGCTTGC | -0.187
CATCAATC | 0.216
AGTGTGTG | 0.0709
GAGGAACC | -0.249
ACGCACCT | -0.264
ATACAGCC | -0.0904
CACCCCGC | -0.133
AATATGGA | -0.0374
CATGGTTC | 0.263
ATTGAGGC | -0.156
ATGGACCG | -0.206
CCATACCA | -0.044
CTTGTGAC | 0.222
CAGGTTCC | -0.185
AGCTCAGA | 0.0441
ACTTGGCC | -0.134
GGTCTTAC | 0.131
GCGGTGTA | -0.121
CTAGAAAG | 0.0546
AGATACCT | -0.183
CGACTTTA | 0.167
TGAATGAA | 0.0427
GGGCAATA | -0.195
ATATCAGC | -0.216

Sequence | PBM E-score
AACGTGTA | 0.00661
AAAGACGG | -0.116
GAACAACA | 0.0466
AGAAGACG | -0.0622
CGGGCAGA | -0.0675
CACTCAAA | 0.107
CTTTCTAC | -0.146
CAGTGCGG | -0.169
TCATTACA | 0.208
CTAAACTC | -0.0742
AGATTACT | 0.2
ATTACATA | 0.177
ACTGCCTA | 0.0997
AAAAGTAA | 0.112
CCACCTCG | -0.0976
AGGTGAAT | 0.0826
ACATCCAG | -0.127
CCGAAAGG | -0.127
CACGACGG | -0.126
CGATAGCC | -0.0746
CCTGTTCG | -0.17
TGTATGAA | -0.0394
AACTTCAT | -0.102
GGGATTCA | 0.147
CTCGTATA | 0.0865

Sequence | PBM E-score
CCAATGCA | -0.111
AGAGAAAC | -0.147
CTGGGGCA | -0.27
TAACGTCA | 0.169
AGAACCCC | -0.27
AACCGGCC | -0.137
GTGACTGA | 0.447
GCGAGAAA | -0.0263
GTAAACGA | 0.0779
AAGGCGCA | -0.171
CAATGAGG | -0.258
AGTGCTAT | -0.068
CAATAGGC | -0.0939
CTGTATGC | -0.14
GGGGGGAA | -0.136
GAAAGATC | -0.269
GAGGGGCA | -0.423
GGAAGGTA | -0.105
GAGTAACC | 0.126
CTAAGCGA | 0.0665
CCAGTAAG | -0.0204
GCTCCTAC | -0.155
GCGCAGCA | 0.0607
ACGTCCCA | -0.206
AGCTAGGC | -0.213

Sequence | PBM E-score
CATGTCGC | -0.0755
GGTACGGA | 0.165
ACTGCGAA | -0.0747
AGGGTAGA | -0.0702
CGCCAACG | -0.211
ACAAGATA | 0.0511
AGCCCCCG | -0.297
GGACGGAA | -0.108
GGTTGCCA | -0.186
GCAGCGAC | -0.00713
ACTGGCGC | -0.223
CCCTTCTA | -0.14
CGCGGACG | -0.105
AGCCGCCT | -0.127
GGCACAGA | -0.218
ACTCTGAT | 0.215
GCTATCCC | -0.393
ACGCTTTG | -0.223
AGCGTAAG | -0.188
CAGCCTAG | -0.116
AAGCAAAT | 0.0533
ATCACGAG | 0.167
AGGACCAG | -0.218
ATCGTTGC | -0.0546
ATTGAACG | 0.17

Sequence | PBM E-score
CTGGTAAA | 0.0683
CTGTGTGC | 0.0798
CACAGGAG | -0.0707
CTCGAACC | -0.233
CGTGCCCC | -0.266
CGCTACGA | 0.00912
TAACAGTA | -0.019
CATTGTCG | 0.0862
AACACAAA | 0.0141
TCAAAGCA | 0.0603
ACGTTACT | 0.135
ACAGTCAA | 0.319
AGAGTAAA | 0.0996
GCGAGCTA | -0.116
GGACGCAA | -0.24
ATAGTAAC | 0.0434
ATGCGTCC | -0.227
ACGCACGA | -0.017
CAGGCTAG | -0.137
ATAGTTCG | -0.0717
CTGTGAAA | -0.0469
AAATTCCT | -0.0529
CGTGTCAG | 0.0286
CCTCCAGC | -0.233
ATATACAT | 0.248

Sequence | PBM E-score
GAAACTAC | 0.00139
CATTGTAG | 0.0681
CTTGTTCC | -0.15
AGGTATTG | -0.0352
ACGACCTC | 0.141
GAACACTA | 0.0361
ATTGTTTA | 0.158
GCACAGAA | -0.113
CATACCAA | 0.0259
CTGCGTTC | -0.157
CCGGAGTA | 0.0206
ACTGGGAC | 0.0246
AGACGATC | -0.299
AACAACGT | -0.112
GCACAGCA | -0.0913
CCCGCGGG | -0.0605
ATCGTCTG | 0.0228
GGACCGTA | -0.0438
ACGTGCCA | -0.209
